# Experimental data taken from PubChem BioAssay AID1468 (National Center for Advancing Translational Sciences (NCATS), 2008).
# The whole screen tested about 280,000 compounds, of which about 1,100 (0.39%) were called active. The shares of active, inactive and inconclusive entries below differ from those in the screen. Calls follow the shape of the dose curve; as a rule, active = well fitted inhibition curve with a large enough effect; inconclusive = small, poorly fitted or top-dose-only effect, or effect the other way; inactive = flat fitted curve, though single readings scatter. Potencies of inconclusive entries are left out as doubtful fits.
# Molecular target: Microtubule-associated protein tau (Homo sapiens) (UniProt P10636)
# Chain of UniProt P10636 (P10636 whole entry, looked up): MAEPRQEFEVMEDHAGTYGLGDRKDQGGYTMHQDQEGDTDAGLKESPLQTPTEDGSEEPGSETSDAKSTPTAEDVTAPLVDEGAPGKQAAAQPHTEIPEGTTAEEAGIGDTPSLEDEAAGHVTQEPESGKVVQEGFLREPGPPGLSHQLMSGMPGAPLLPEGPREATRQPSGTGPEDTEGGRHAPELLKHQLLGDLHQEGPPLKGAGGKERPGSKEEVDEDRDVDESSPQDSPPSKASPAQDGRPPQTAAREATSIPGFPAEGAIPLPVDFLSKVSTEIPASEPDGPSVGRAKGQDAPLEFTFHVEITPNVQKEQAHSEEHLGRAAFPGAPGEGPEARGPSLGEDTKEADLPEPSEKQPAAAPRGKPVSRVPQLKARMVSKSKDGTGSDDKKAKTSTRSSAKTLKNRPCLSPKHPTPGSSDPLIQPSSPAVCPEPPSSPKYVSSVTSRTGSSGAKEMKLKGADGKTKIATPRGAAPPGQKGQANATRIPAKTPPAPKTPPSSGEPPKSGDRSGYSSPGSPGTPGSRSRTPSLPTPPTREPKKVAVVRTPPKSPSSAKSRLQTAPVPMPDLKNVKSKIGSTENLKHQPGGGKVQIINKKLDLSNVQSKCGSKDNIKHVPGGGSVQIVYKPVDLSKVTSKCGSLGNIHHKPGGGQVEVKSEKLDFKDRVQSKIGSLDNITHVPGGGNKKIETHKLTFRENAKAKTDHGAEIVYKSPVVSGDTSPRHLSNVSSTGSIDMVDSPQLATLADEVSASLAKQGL
# Assay: qHTS for Inhibitors of Tau Fibril Formation, Fluorescence Polarization; also: nearly all actives have a fitted effect of over 55% in size
# Settings: K18 P301L tau heparin fibrillization, Alexa594 FP, 6 h; series mostly up to 57.7 µM; activity, negative = inhibition: at the top concentration
# How it was run: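 Human tau K18 […] P301L fragment, 15 uM unlabeled plus 0.24 uM Alexa 594-labeled tau (final), with compound and 20 uM heparin in 100 mM sodium acetate pH 7; 6 hr at 37 C, then Alexa 594 FP read.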
# % is scaled to controls: 0 for no effect and ±100 for the full control effect; potency is read from the fitted curve at half-maximal effect; tags tell the direction and shape of the fitted curve.
Structure (SMILES),Potency,"activity, negative = inhibition"
COc1ccccc1N=C1SC(C(=O)Nc2cccc(Cl)c2Cl)C(N)=C1C(N)=O (stereo not drawn),"inconclusive [activator, partial curve, poor fit]",–
O=C(OCc1ccccc1Cl)c1ccc(-c2nnn(Cc3ccccc3Cl)n2)cc1,"inconclusive [inhibitor, full curve, poor fit]",–
COc1ccc(OC)c(CN2CCCC(CO)C2)c1 (stereo not drawn),"inconclusive [inhibitor, full curve, poor fit]",–
CN(Cc1ccccc1)C(=O)c1cc2c(s1)-c1ccc(Cl)cc1SC2,–,inactive: -1.13%
O=C1c2ccccc2COc2ccc(O)cc21,–,inactive: 9.06%
Cc1cccc(NC(=S)NCCc2c[nH]c3ccccc23)c1,"inconclusive [activator, single point]",–
COc1cc(NCc2ccc3nc(N)nc(N)c3c2C)cc(OC)c1OC,"inconclusive [inhibitor, single point]",–
O=C(CCCCn1c(=O)c2ccccc2n(CC(=O)Nc2cccc(F)c2)c1=O)NCc1ccccc1Cl,"inconclusive [inhibitor, single point]",–
COc1ccc(NC(=O)CSc2nc3c(c(-c4cccs4)c2C#N)CN(C)CC3)cc1OC,"inconclusive [inhibitor, single point]",–
O=C(N/N=C/c1ccco1)c1cc(-c2ccc(Br)s2)[nH]n1,"inconclusive [inhibitor, single point]",–
O=C(O)CCc1ccc(-c2ccccc2)n1-c1cccc(Br)c1,–,inactive: -2.29%
Cc1cccc2cc(C#N)c(SCC(=O)NCc3cccs3)nc12,–,inactive: 2.91%
Cc1ccc(S(=O)(=O)N[C@@H](Cc2ccccc2)C(=O)CCl)cc1,"inconclusive [activator, single point]",–
CCc1ccc(Oc2nc3c(C)cccn3c(=O)c2/C=C(\C#N)c2nc3ccccc3s2)cc1,"inconclusive [inhibitor, partial curve]",–
COc1cccc(CC(=O)Nc2nc(-c3cc(OC)ccc3OC)cs2)c1,"inconclusive [inhibitor, single point]",–
Cc1ccc(NC(=O)CCSc2nc(-c3ccc4c(c3)OCO4)cc(C(F)(F)F)n2)cc1,"inconclusive [inhibitor, partial curve]",–
CC(/C=C/c1ccc(C)o1)=C\C(=O)O,"inconclusive [inhibitor, single point]",–
COc1ccc(-c2cc(C(=O)OCC(=O)c3cccc(OC)c3)c3cccc(Cl)c3n2)cc1,"inconclusive [inhibitor, partial curve, poor fit]",–
Cc1ccccc1CNC(=O)C1CCCN(c2nnc(-n3c(C)ccc3C)s2)C1 (stereo not drawn),"inconclusive [inhibitor, single point]",–
C=CCOC(=O)C(=O)/C=C/c1coc2ccccc2c1=O,"inconclusive [activator, single point]",–
COc1ccc(CCC(=O)NCc2nc3cccnc3n2Cc2ccc(OC)cc2)cc1,"inconclusive [activator, single point]",–
Oc1nc(Nc2cccc(Cl)c2)sc1/C=C1\C=Nc2ccccc21,"inconclusive [activator, partial curve]",–

Structure (SMILES),Potency,"activity, negative = inhibition"
CCC(C)C(=O)Nc1nc(C)c(-c2csc(Nc3cc(OC)ccc3OC)n2)s1 (stereo not drawn),"inconclusive [activator, full curve, poor fit]",–
NS(=O)(=O)c1ccc(CNC(=O)CCSCCC(=O)NCc2ccc(S(N)(=O)=O)cc2)cc1,"inconclusive [inhibitor, single point]",–
S=c1[nH]nc(-c2cccs2)n1/N=C/c1cn(-c2ccccc2)nc1-c1ccccc1,–,inactive: -4.62%
COc1ccc(/C=C/c2nc(N)nc(-c3ccccc3O)n2)cc1,"inconclusive [inhibitor, partial curve]",–
COc1ccc(OCCC(=O)Nc2cc(C)on2)cc1,–,inactive: 0.792%
Cc1cc(C)cc(-n2nnc(C(=O)NCc3ccc(Cl)cc3)c2N)c1,"inconclusive [inhibitor, single point]",–
COc1ccc(-c2nc(SCC(=O)Nc3cccc(C(C)=O)c3)n[nH]2)cc1,"inconclusive [inhibitor, partial curve]",–
CCc1ccc(NC(=O)Cn2nnc(C(=O)Nc3cc(C)ccc3OC)c2N)cc1,"inconclusive [inhibitor, partial curve]",–
CC(C)n1nc(C(=O)OCC(=O)c2c[nH]c3ccccc23)c2ccccc2c1=O,"inconclusive [inhibitor, partial curve]",–
CCc1n[nH]c(=S)n1/N=C/c1cc(Br)c(OC)cc1OC,–,inactive: 3.44%
Cc1ccc(S(=O)(=O)Nc2ccc3c(c2)c(C(=O)OC(C)C)c(C)n3S(=O)(=O)c2ccc(C)cc2)cc1,"inconclusive [inhibitor, partial curve]",–
O=S(=O)(Nc1ccc(Br)cc1)c1ccc2nc(-c3ccccc3)[nH]c2c1,active: 15.8 µM,–
COc1ccccc1N1C(=N)S/C(=C\c2ccc(-c3ccccc3C(=O)O)o2)C1=O,–,inactive: 7.86%
CCn1c(SCC(=O)c2ccc3c(c2)OCCO3)nnc1-c1ccco1,–,inactive: -1.17%
CC(C)(C)OC(=O)NCCc1nnc(SCC(=O)c2ccc(Cl)cc2)o1,–,inactive: 0.545%
O=C1CC(N2CCCc3ccccc32)C(=O)N1c1ccccc1 (stereo not drawn),–,inactive: 9.62%
COc1ccc(NC(=O)/C(Cl)=C(/Cl)S(=O)Cc2ccccc2)cn1 (stereo not drawn),"inconclusive [inhibitor, full curve]",–
Cc1nn(-c2ccccc2)c(Cl)c1/C=N/NC(=O)C1COc2ccccc2O1 (stereo not drawn),–,inactive: 4.89%
Oc1ccc(Nc2nc(-c3ccc(Cl)cc3)nc3ccccc23)cc1,"inconclusive [inhibitor, single point]",–
CC1(C)C=Cc2c(cc3occ(-c4ccc5c(c4)OCO5)c(=O)c3c2O)O1,"inconclusive [inhibitor, partial curve]",–
NS(=O)(=O)c1ccc(CNC(=S)Nc2ccc(Cl)c(Cl)c2)cc1,"inconclusive [inhibitor, partial curve]",–
